Experimental data taken from article PMC4336329 (PLoS ONE, 2015).
Out of some 310,000 compounds screened, about 14,000 (4.5%) showed an effect of 50% or more. The effect is printed as a negative number. Some of the results follow.

target: human ether-à-go-go-related gene (hERG) potassium channel (human, UniProt Q12809); test: primary screen, population patch clamp on CHO cells stably expressing hERG
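Further: peak tail current of the secondary pulse compared with the same well before compound.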

human ether-à-go-go-related gene (hERG) potassium channel, sequence (Q12809 whole entry, looked up): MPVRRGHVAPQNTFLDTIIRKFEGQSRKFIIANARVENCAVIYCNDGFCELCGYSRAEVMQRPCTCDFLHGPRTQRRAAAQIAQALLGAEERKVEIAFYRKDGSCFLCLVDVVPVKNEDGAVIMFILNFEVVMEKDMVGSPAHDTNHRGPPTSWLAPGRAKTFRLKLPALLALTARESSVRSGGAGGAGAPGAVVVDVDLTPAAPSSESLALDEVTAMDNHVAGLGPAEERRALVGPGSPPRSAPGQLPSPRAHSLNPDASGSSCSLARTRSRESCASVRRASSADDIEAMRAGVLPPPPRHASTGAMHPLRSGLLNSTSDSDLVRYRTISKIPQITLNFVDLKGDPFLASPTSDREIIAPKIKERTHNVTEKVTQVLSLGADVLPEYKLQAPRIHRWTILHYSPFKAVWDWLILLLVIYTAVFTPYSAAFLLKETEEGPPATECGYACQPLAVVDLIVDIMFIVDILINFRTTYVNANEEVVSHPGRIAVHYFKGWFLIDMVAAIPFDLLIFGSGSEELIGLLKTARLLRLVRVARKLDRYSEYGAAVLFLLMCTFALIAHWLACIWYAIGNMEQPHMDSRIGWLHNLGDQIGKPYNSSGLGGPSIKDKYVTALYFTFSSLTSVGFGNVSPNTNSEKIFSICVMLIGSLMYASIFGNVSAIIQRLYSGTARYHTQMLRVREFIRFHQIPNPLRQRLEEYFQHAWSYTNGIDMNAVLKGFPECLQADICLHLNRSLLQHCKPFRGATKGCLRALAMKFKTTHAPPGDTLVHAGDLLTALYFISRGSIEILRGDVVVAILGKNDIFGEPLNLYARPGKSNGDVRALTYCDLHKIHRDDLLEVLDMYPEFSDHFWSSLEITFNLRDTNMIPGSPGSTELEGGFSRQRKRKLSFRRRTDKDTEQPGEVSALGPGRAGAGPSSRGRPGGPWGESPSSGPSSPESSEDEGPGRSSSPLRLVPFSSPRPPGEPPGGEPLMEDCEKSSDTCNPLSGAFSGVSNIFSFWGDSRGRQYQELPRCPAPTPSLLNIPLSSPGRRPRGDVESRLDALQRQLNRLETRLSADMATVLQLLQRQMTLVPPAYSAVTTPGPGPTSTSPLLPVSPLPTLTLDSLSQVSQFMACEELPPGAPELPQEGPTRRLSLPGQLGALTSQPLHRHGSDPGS

Row | SMILES | hERG current change (%, negative = inhibition) at 10uM
1 | CC(C)CC(=O)NN(C)c1nc(-c2ccccc2)nnc1C(F)(F)F | 6.78%
2 | O=C(c1ccc(OC2CCN(C(=O)c3cccnc3)CC2)cc1)N1CCCCCC1 | 4.69%
3 | COc1ccc(/C=C/C(=O)C2(O)CCCCC2)cc1 | -16.9%
4 | O=C(NCCN1CCCCC1)Nc1ccc([N+](=O)[O-])cc1 | -41.4%
5 | O=C(O)c1cc(-c2ccc(-c3c(-c4ccc5c(c4)OCO5)noc3-c3ccsc3)cc2)nc2ccccc12 | 2.1%
6 | CCC(C)[C@H]1COCCS(=O)(=O)N1Cc1ccccc1 (stereo partly shown) | 5.2%
7 | Cc1cccc(C(C(=O)NC2CCCC2)N(Cc2cccnc2)C(=O)c2csnn2)c1 (stereo not shown) | 1.91%
8 | COC(=O)c1cc(Cl)c(NC(=O)/C=C/c2ccc(Cl)cc2Cl)cc1OC | -10.9%
9 | O=C(NCc1ccccn1)c1ccc(OC2CCN(Cc3ccccc3O)CC2)cc1 | -1.17%
10 | COc1ccc(Cl)cc1N(CC(=O)N1CCCC1)S(C)(=O)=O | 8.82%
11 | COc1ccc(CCNCc2ccc(SC)cc2)cc1 | -73.2%
12 | Cc1onc(-c2ccccc2)c1C(=O)N1CCOC12CCN(c1cccc(F)n1)CC2 | -8.68%
13 | C=CCNC(=O)C(C(=O)OCC)C1CCCCC1 (stereo not shown) | -53.3%
14 | Cn1c(CN2CCCCC2)nc2cc(NC(=O)c3cccc(Br)c3)ccc21 | -63.3%
15 | O=c1[nH]c(=O)c2nc3ccccc3nc2[nH]1 | 3.76%
16 | O=C(CCN1C(=O)S/C(=C\c2ccccc2)C1=O)Nc1ccc(S(=O)(=O)Nc2nccs2)cc1 | 7.01%
17 | COc1ccc(N2CC(O)=C(c3nc4ccccc4s3)C2=N)c(OC)c1 | -23%
18 | COc1ccc(Cl)cc1NC(=O)C(C)N(C)Cc1cccc(Cl)c1Cl (stereo not shown) | -14.5%
19 | O=[N+]([O-])c1cccc(CN2CCN(c3ncccn3)CC2)c1 | -1.26%
20 | OC1(c2cccs2)CN(c2ccccc2)C2=[N+]1CCCC2.[Br-] (stereo not shown) | 4.63%
21 | CC1(CCC(=O)N2CCCC(Nc3ccc(F)cc3)C2)CC1 (stereo not shown) | -2.6%
22 | COc1ccc(OCC(=O)Nc2ccc3c(c2)CCC3)cc1 | -19.9%
23 | Cc1ccc(Nc2cnn(C34CC5CC(CC(CC(=O)O)(C5)C3)C4)c(=O)c2Cl)c(Cl)c1 | 20.1%
24 | S=C(NCCCN1CCOCC1)Nc1ccc(Cl)cc1 | -17.2%
25 | CN(CC(=O)Nc1ccc(S(=O)(=O)N(C)C)cc1)Cc1ccc(C(F)(F)F)cc1 | 1.53%
26 | CCN(CC(=O)Nc1ccc(NC(C)=O)cc1)C(=O)Cc1coc2cc(C)c(C)cc12 | -16%
27 | Cc1cc([N+](=O)[O-])ccc1N=Nc1c(N)[nH]n(-c2ccccc2)c1=O | 14.1%
28 | Cc1c(NC(=O)COC(=O)c2ncc(Cl)c(Cl)c2Cl)c(=O)n(-c2ccccc2)n1C | 16%

Row | SMILES | hERG current change (%, negative = inhibition) at 10uM
29 | COc1ccc2c(c1)CCC1=C2NC(=S)NC1c1ccc(N(C)C)cc1 (stereo not shown) | 11%
30 | CCOc1ccc(OCCCC(=O)O)cc1 | -15%
31 | Cc1ccc(OCC(=O)Nc2ccc3c(c2)OCO3)c([N+](=O)[O-])n1 | -7.74%
32 | CCn1c(SCC(=O)N2c3ccccc3CCc3ccccc32)nnc1-c1ccc(OC)cc1 | -7.97%
33 | O=[N+]([O-])c1ccc(NC(=S)N2CCN(c3ccccn3)CC2)cc1 | -6.23%
34 | CCOc1ccc(NC(=S)NCCCc2ccccc2)cc1 | -12.4%
35 | Cc1ccc(CNC(=O)CSc2c3c(nc4ccc(Cl)cc24)CCCC3)o1 | -0.428%
36 | COCCOC(=O)/C(C#N)=C/c1cn(Cc2ccccc2)nc1-c1cccnc1 | -67.1%
37 | COC(=O)C1=C(c2cc3ccccc3o2)C[C@@H]2CC[C@H]1N2C(=O)NCCCOC(C)C | -9.32%
38 | CCOCc1nnc(NC(=O)COC)s1 | -2.04%
39 | Cc1ccc(S(=O)(=O)CCC(=O)c2ccc(O)cc2O)cc1 | -25.1%
40 | CC(C)(C)c1ccc(Oc2ccc(NC(=O)c3ccccc3C(=O)O)cn2)cc1 | 15.3%
41 | O=C(c1ccc(F)c(F)c1)N1CCC2(CC1)NCCc1[nH]cnc12 | 10.3%
42 | COc1ccc(C2SCC(=O)N2c2ccc(OC)cc2)cc1 (stereo not shown) | 12.8%
43 | COC(=O)c1ccc(CN2CCN(CCC(C)C)C(CCO)C2)cc1 (stereo not shown) | -25.7%
44 | O=C(CN=C1NS(=O)(=O)c2ccccc21)OCC(=O)c1ccccc1 | -0.856%
45 | COc1cccc(-c2nnc(NC(=O)c3ccc(S(=O)(=O)N(CC(C)C)CC(C)C)cc3)o2)c1 | 18.5%
46 | CCOC(=O)C(O)(c1ccc(NC(=O)Oc2ccccc2)cc1)C(F)(F)F (stereo not shown) | -3.78%
47 | Cc1nnc(SCC(=O)N(C)c2c(N)n(Cc3ccccc3)c(=O)[nH]c2=O)n1Cc1ccccc1 | 13.7%
48 | Cc1c(C(=O)NCc2cccnc2)oc2ccc(S(=O)(=O)N3CC(C)CC(C)C3)cc12 (stereo not shown) | 6.69%
49 | CCOc1ccc2nc(N/C(N)=N/C(=S)Nc3ccc(OC)cc3)nc(C)c2c1 | 13.7%
50 | CSc1nc2ccccc2s1 | 9.72%
51 | COCC1CCN(C(=O)c2ccc(OC)c(OC3CCN(C(C)C)CC3)c2)CC1 | 17.9%
52 | O=C(NCc1ccc(Cl)cc1)C(=O)N/N=C/c1ccc(Br)cc1 | 19.4%
53 | Cc1ccc2nc(-c3ccc(NC(=O)CCS(=O)(=O)c4ccccc4)cc3)sc2c1 | 2.03%
54 | CCOC(=O)c1cc(OC(=O)c2cccc([N+](=O)[O-])c2)n(-c2ccccc2)n1 | 3.84%
55 | CCCn1c(=O)c2c(nc3n2CC(C)CN3Cc2ccccc2)n(C)c1=O (stereo not shown) | -39.4%
